# Experimental data taken from the supplement of paper PMC3334620.
# Whole data set: some 33,000 sequences, median “E-score (-0.5 to 0.5)” near -0.012, cut for the highest 2% near 0.29. The list shows a part of the results.
# Target: T1, Ybr033w (UniProt P38073)
# T1 sequence: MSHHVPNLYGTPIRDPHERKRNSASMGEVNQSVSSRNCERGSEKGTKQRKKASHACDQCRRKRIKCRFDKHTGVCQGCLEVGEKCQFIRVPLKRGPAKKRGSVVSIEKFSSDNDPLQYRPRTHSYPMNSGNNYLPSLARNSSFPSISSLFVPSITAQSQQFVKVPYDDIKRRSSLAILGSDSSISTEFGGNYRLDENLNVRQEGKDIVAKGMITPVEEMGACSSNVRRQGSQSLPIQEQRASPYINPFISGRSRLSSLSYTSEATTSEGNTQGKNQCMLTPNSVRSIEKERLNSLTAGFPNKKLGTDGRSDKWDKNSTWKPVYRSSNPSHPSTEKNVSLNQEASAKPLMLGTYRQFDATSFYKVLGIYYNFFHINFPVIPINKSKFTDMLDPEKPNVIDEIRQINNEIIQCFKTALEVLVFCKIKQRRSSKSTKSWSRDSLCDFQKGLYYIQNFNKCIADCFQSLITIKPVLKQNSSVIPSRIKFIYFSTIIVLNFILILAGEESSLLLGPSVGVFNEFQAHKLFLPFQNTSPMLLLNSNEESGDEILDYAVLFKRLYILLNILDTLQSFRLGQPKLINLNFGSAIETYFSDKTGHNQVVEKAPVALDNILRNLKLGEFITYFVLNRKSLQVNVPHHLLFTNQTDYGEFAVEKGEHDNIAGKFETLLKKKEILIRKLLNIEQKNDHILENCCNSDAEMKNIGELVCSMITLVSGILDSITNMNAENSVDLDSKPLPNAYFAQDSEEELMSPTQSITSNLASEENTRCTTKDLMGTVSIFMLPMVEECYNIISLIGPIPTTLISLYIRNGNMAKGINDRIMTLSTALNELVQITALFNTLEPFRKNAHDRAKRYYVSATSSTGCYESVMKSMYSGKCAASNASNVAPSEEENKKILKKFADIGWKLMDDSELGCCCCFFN
# Assay: PBM E-score (8-mer binding enrichment) (E-score (-0.5 to 0.5)); higher = stronger / more preferred TF binding; most listed sequences are background and not binding sites
# Conditions: protein concentration: 200 nM; construct: GST-full length
# Experimental: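 Universal 'all 10-mer' protein binding microarrays (Agilent AMADID 015681) probed with GST-tagged S. cerevisiae TFs (full-length or DBD) made by in vitro transcription/translation (PURExpress), about 100-200 nM. Bound TF was detected with fluorescent anti-GST. Each ungapped 8-mer (which stands for itself and its reverse complement) is scored by the PBM enrichment score (E-score), a modified Wilcoxon-Mann-Whitney statistic from -0.5 to +0.5, computed with the Universal PBM Analysis Suite. Scale: above 0.35 generally sequence-specific binding.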
row,Sequence,PBM E-score
1,ATGCGCAT,0.2
2,ATCGGGCG,-0.162
3,AATAGTAC,0.129
4,CGATGAGC,-0.153
5,CGTACGAG,0.0796
6,CGTTTGAA,0.0628
7,CTATGAAG,0.0395
8,AAGGTGGC,-0.0461
9,GCGTGAAC,-0.0541
10,CAAATCGA,0.112
11,ATACGTTC,-0.118
12,ACTCTATC,-0.0216
13,GGTGCTTA,-0.116
14,CCGCAATA,0.191
15,CAACAAAG,0.235
16,ACCCGGCA,-0.108
17,GACGCCGC,-0.0979
18,GATACGAA,0.165
19,ACAGTACG,0.074
20,AACTCCTA,0.149
21,AGATATTG,0.185
22,GAGGACTC,-0.345

row,Sequence,PBM E-score
1,CCGTTTGC,-0.129
2,GTAGTTCA,0.202
3,CAAGGCAC,-0.134
4,CTGTGGAC,-0.177
5,CCCCGGGC,-0.302
6,GTACCTGA,-0.00902
7,TATAAGCA,0.141
8,AAGCACTG,0.162
9,CAATCCTC,0.0592
10,AATATGCT,0.187
11,ACGAATCA,0.136
12,CGGCCATC,-0.294
13,TAATGTGA,0.223
14,ATGGAGCC,-0.117
15,AGAAGTTG,0.0396
16,AGTGGGGG,-0.395
17,AATACTGT,0.234
18,AACCTGAT,0.104
19,CACCGGCG,-0.144
20,GGCAGAGA,-0.0846
21,AATATAAG,0.295
22,CCAGCTTA,-0.0186

row,Sequence,PBM E-score
1,TGACGCAA,-0.193
2,AACTGCAT,0.16
3,ATCCGGAT,0.166
4,ATGTCCAG,-0.0268
5,AGAGATGC,-0.106
6,AGAATTTC,0.0968
7,ATCCGGTA,0.0524
8,ACAACCCT,-0.169
9,ATTTGAAA,0.232
10,GGATCGAC,0.0299
11,ACCGTACG,-0.142
12,CCAAAGGA,-0.14
13,ACATCAAA,0.121
14,CCAGGTAG,-0.0963
15,CAGTCCAC,-0.0868
16,CTTCAAAG,0.0507
17,ATCAGGAT,0.139
18,GCTTATCC,-0.00747
19,CAATTCGA,0.104
20,ATGTACAG,-0.0484
21,CGACGTAG,-0.223
22,CAGTTTTA,0.225

row,Sequence,PBM E-score
1,ACTAAAGA,0.0228
2,ACCCTAGA,0.00118
3,AGACGCAG,-0.133
4,CTTACCGC,-0.0405
5,CGTGAGGA,-0.0879
6,ACTCAACA,0.146
7,GGACCGCA,-0.247
8,CTACCAAC,0.154
9,AGTTACCC,-0.117
10,GACGCTGC,-0.213
11,GCCAATGA,-0.163
12,GCCAGTAC,-0.0841
13,CTTAAACA,0.104
14,CTAGGGGC,-0.291
15,CTAGACTA,-0.019
16,GACTGGAC,-0.343
17,ACTACTGG,0.017
18,ATCGAGGG,-0.255
19,CGCAACCC,-0.0745
20,CTGTCAGC,0.0147
